The target of one test is B. malayi iPGM (Brugia malayi, UniProt Q4VWF8). Nature of the test: biochemical. The conditions noted are these: Bm iPGM Ave IC50 (M), 5 nM enzyme.
The target in another test is O. volvulus iPGM (Onchocerca volvulus, UniProt I6LDA6). Nature of the test: biochemical. The conditions noted are these: Ov iPGM Ave IC50 (M), 5 nM enzyme.
The target in another test is C. elegans iPGM (Caenorhabditis elegans, UniProt G5EFZ1). The experiment in a line: PGM enzyme assay (enolase–pyruvate kinase coupled, Kinase-Glo Plus end point) and IC50 determination. Type of test: biochemical. The note with it: Ce iPGM Ave IC50 (M), 5 nM enzyme.
Setting [1] is: Supplementary Table 4a, Ce-2 analogs, average of N=2-3 independent experiments.
[2] abbreviates: Supplementary Table 4b, Ce-2d analogs.

Bridge positions count the residues as written; N and C are the ends. Square brackets hold non-standard residues; d marks the D form. Peptide text beside a SMILES is read from it.

Sequence of UniProt I6LDA6 (I6LDA6 whole entry): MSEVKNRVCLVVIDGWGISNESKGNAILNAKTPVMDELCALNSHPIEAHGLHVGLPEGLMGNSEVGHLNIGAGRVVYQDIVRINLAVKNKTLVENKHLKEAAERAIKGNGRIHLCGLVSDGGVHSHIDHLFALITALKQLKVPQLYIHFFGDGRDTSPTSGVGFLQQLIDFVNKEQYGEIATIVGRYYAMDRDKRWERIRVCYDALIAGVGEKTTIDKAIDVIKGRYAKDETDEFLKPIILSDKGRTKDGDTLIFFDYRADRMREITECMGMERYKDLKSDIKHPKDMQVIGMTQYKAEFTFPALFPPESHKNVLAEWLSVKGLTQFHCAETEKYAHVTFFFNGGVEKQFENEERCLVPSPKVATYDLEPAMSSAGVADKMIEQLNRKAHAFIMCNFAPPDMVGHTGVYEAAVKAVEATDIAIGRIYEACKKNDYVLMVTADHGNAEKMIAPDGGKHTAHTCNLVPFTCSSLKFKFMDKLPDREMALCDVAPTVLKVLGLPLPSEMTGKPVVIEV
Sequence of UniProt Q4VWF8 (Q4VWF8 whole entry): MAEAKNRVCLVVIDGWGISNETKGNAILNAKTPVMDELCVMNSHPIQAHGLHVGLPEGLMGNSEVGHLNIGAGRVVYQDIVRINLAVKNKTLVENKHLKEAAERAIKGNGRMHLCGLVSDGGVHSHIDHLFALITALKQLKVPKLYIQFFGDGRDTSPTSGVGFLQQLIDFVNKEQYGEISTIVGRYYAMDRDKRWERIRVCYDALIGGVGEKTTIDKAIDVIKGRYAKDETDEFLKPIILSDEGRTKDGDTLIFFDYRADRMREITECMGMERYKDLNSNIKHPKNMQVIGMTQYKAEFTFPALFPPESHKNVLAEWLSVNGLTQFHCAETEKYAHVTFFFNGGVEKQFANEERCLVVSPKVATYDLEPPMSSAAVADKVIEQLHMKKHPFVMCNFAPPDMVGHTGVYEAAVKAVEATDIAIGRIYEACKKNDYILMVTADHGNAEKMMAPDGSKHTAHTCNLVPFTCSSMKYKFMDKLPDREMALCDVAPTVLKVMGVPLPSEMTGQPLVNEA

For orientation: IC50 means the concentration needed to halve the response being measured. For `CC(C)C[C@H](NC(=O)[C@H](Cc1ccc(O)cc1)NC(=O)[C@@H]1CSCC(=O)N[C@H](Cc2ccc(O)cc2)C(=O)N[C@@H](CC(=O)O)C(=O)N[C@@H](Cc2ccc(O)cc2)C(=O)N[C@@H](C(C)C)C(=O)NCC(=O)N[C@@H](CC(=O)O)C(=O)N[C@@H](Cc2ccc(O)cc2)C(=O)N1)C(=O)N[C@@H](Cc1ccc(O)cc1)C(=O)NCC(=O)N[C@H](C(=O)N[C@@H](CS)C(N)=O)[C@@H](C)O` [Ce-2 P4V], the IC50 turned out to be 1.89e-09 M on B. malayi iPGM (setting [1]), 2.96e-09 M on O. volvulus iPGM (setting [1]) and 2.17e-09 M on C. elegans iPGM (setting [1]).

`CC(C)C[C@@H]1NC(=O)[C@H](Cc2ccc(O)cc2)NC(=O)[C@H](CS)NC(=O)[C@H](Cc2ccc(O)cc2)NC(=O)[C@H](CC(=O)O)NC(=O)CNC(=O)[C@@H]2CCCN2C(=O)[C@H](Cc2ccc(O)cc2)NC(=O)[C@H](CC(=O)O)NC(=O)[C@@H](Cc2ccc(O)cc2)NC(=O)CSC[C@@H](C(N)=O)NC(=O)[C@H]([C@@H](C)O)NC(=O)CNC(=O)[C@H](Cc2ccc(O)cc2)NC1=O` [Ce-2 [Y1-->C14]]: the values for the IC50 at B. malayi iPGM (setting [1]), on O. volvulus iPGM (setting [1]) and at C. elegans iPGM (setting [1]) were 1.59e-05 M, 5.2e-06 M and 2e-06 M, respectively.

Take `CC(C)C[C@H](NC(=O)[C@H](Cc1ccc(O)cc1)NC(=O)[C@@H]1CSCC(=O)N[C@H](Cc2ccc(O)cc2)C(=O)N[C@@H](CC(=O)O)C(=O)N[C@@H](Cc2ccccc2)C(=O)N2CCC[C@H]2C(=O)NCC(=O)N[C@@H](CC(=O)O)C(=O)N[C@@H](Cc2ccc(O)cc2)C(=O)N1)C(=O)N[C@@H](Cc1ccc(O)cc1)C(=O)NCC(=O)N[C@H](C(=O)N[C@@H](CS)C(N)=O)[C@@H](C)O` [Ce-2 Y3F] ({CH2CO}-[dY]DFPGDYCYLYGTC-NH2; thioether N-8): the results for the IC50 against B. malayi iPGM (setting [1]), against O. volvulus iPGM (setting [1]) and at C. elegans iPGM (setting [1]) were 3.69e-09 M, 3.22e-09 M and 1.6e-09 M, respectively.

With `CC(C)C[C@H](NC(=O)[C@H](Cc1ccc(O)cc1)NC(=O)[C@@H]1CSCC(=O)N[C@H](Cc2ccc(O)cc2)C(=O)N[C@@H](CC(N)=O)C(=O)N[C@@H](Cc2ccc(O)cc2)C(=O)N2CCC[C@H]2C(=O)NCC(=O)N[C@@H](CC(=O)O)C(=O)N[C@@H](Cc2ccc(O)cc2)C(=O)N1)C(=O)N[C@@H](Cc1ccc(O)cc1)C(=O)NCC(=O)N[C@H](C(=O)N[C@@H](CS)C(N)=O)[C@@H](C)O` [Ce-2 D2N] ({CH2CO}-[dY]NYPGDYCYLYGTC-NH2; thioether N-8), the results for the half-inhibitory concentration (IC50) on B. malayi iPGM (setting [1]), on O. volvulus iPGM (setting [1]) and on C. elegans iPGM (setting [1]) were 2.13e-09 M, 2.9e-09 M and 2.27e-09 M, respectively.

Turning to `CC(C)C[C@H](NC(=O)[C@H](Cc1ccc(O)cc1)NC(=O)[C@@H]1CSCC(=O)N[C@@H](Cc2ccc(F)cc2)C(=O)N[C@@H](CC(=O)O)C(=O)N[C@@H](Cc2ccc(O)cc2)C(=O)N2CCC[C@H]2C(=O)NCC(=O)N[C@@H](CC(=O)O)C(=O)N[C@@H](Cc2ccc(O)cc2)C(=O)N1)C(=O)N[C@@H](Cc1ccc(O)cc1)C(N)=O` [Ce-2d Y1(4F)F], the concentration for half-maximal inhibition (IC50) was 3.39e-08 M at B. malayi iPGM (setting [2]), 1.26e-07 M on O. volvulus iPGM (setting [2]) and 2.49e-09 M on C. elegans iPGM (setting [2]).

`CC(C)C[C@H](NC(=O)[C@H](Cc1ccc(O)cc1)NC(=O)[C@@H]1CSCC(=O)N[C@H](Cc2ccc(O)cc2)C(=O)N[C@@H](CC(=O)O)C(=O)N[C@@H](Cc2ccc(O)cc2)C(=O)N2CCC[C@H]2C(=O)NCC(=O)N[C@@H](CC(=O)O)C(=O)N[C@@H](Cc2ccccc2)C(=O)N1)C(=O)N[C@@H](Cc1ccc(O)cc1)C(=O)NCC(=O)N[C@H](C(=O)N[C@@H](CS)C(N)=O)[C@@H](C)O` [Ce-2 Y7F]: the half-maximal inhibitory concentration (IC50) on B. malayi iPGM (setting [1]) is 1.46e-09 M; against O. volvulus iPGM (setting [1]), 2.45e-09 M; on C. elegans iPGM (setting [1]) it was 1.9e-09 M.

Consider `CC(C)C[C@H](NC(=O)[C@H](Cc1ccc(O)cc1)NC(=O)[C@@H]1CSCC(=O)N[C@H](Cc2ccc(O)cc2)C(=O)N[C@@H](CC(=O)O)C(=O)N[C@@H](Cc2ccc(O)cc2)C(=O)N2CCC[C@H]2C(=O)NCC(=O)N[C@@H](CC(=O)O)C(=O)N[C@@H](Cc2ccc(O)cc2)C(=O)N1)C(=O)N[C@@H](Cc1ccccc1)C(N)=O` [Ce-2d Y11F], for which the 50% inhibitory concentration (IC50) on B. malayi iPGM (setting [2]) came out at 5.53e-08 M; against O. volvulus iPGM (setting [2]), 2.14e-07 M; on C. elegans iPGM (setting [2]), 8e-09 M.

In the case of `CC(C)C[C@H](NC(=O)[C@H](Cc1ccc(O)cc1)NC(=O)[C@@H]1CSCC(=O)N[C@H](Cc2ccc(O)cc2)C(=O)N[C@@H](CC(=O)O)C(=O)N[C@@H](Cc2ccc(O)cc2)C(=O)N2CCC[C@H]2C(=O)NCC(=O)N[C@@H](CC(=O)O)C(=O)N[C@@H](Cc2ccc(F)cc2)C(=O)N1)C(=O)N[C@@H](Cc1ccc(O)cc1)C(=O)NCC(=O)N[C@H](C(=O)N[C@@H](CS)C(N)=O)[C@@H](C)O` [Ce-2 Y7(4F)F], the IC50 against B. malayi iPGM (setting [1]) is 1.42e-09 M; at O. volvulus iPGM (setting [1]), 2.28e-09 M; on C. elegans iPGM (setting [1]) it was 1.79e-09 M.

Take `CC(C)C[C@H](NC(=O)[C@H](Cc1ccccc1)NC(=O)[C@@H]1CSCC(=O)N[C@H](Cc2ccc(O)cc2)C(=O)N[C@@H](CC(=O)O)C(=O)N[C@@H](Cc2ccc(O)cc2)C(=O)N2CCC[C@H]2C(=O)NCC(=O)N[C@@H](CC(=O)O)C(=O)N[C@@H](Cc2ccc(O)cc2)C(=O)N1)C(=O)N[C@@H](Cc1ccc(O)cc1)C(=O)NCC(=O)N[C@H](C(=O)N[C@@H](CS)C(N)=O)[C@@H](C)O` [Ce-2 Y9F] ({CH2CO}-[dY]DYPGDYCFLYGTC-NH2; thioether N-8): the IC50 on O. volvulus iPGM (setting [1]) is 3.36e-09 M; on C. elegans iPGM (setting [1]) it was 1.07e-09 M.

Consider `CC(C)C[C@H](NC(=O)[C@H](CC(C)C)NC(=O)[C@H](Cc1ccc(O)cc1)NC(=O)[C@@H]1CSCC(=O)N[C@H](Cc2ccc(O)cc2)C(=O)N[C@@H](CC(=O)O)C(=O)N[C@@H](Cc2ccc(O)cc2)C(=O)N2CCC[C@H]2C(=O)NCC(=O)N[C@@H](CC(=O)O)C(=O)N[C@@H](Cc2ccc(O)cc2)C(=O)N1)C(N)=O` [Ce-2d Y11L], for which the IC50 at B. malayi iPGM (setting [2]) came to 1.89e-07 M; against O. volvulus iPGM (setting [2]) it was 7.21e-07 M; on C. elegans iPGM (setting [2]) it was 1.23e-08 M.

As to `CC(=O)N[C@@H](Cc1ccc(O)cc1)C(=O)NCC(=O)N[C@H](C(=O)N[C@@H](CS)C(N)=O)[C@@H](C)O` [Ac-YGTCNH2, Ac-YGTC-CONH2] (Ac-YGTC-NH2), the half-maximal inhibitory concentration (IC50) was over 0.001 M at O. volvulus iPGM (setting [1]) and 0.000999 M on C. elegans iPGM (setting [1]).

`CC(C)C[C@H](NC(=O)[C@H](Cc1ccc(O)cc1)NC(=O)[C@@H]1CSCC(=O)N[C@H](Cc2ccc(O)cc2)C(=O)N[C@@H](CC(=O)O)C(=O)N[C@@H](Cc2ccc(O)cc2)C(=O)N2CCC[C@H]2C(=O)NCC(=O)NCC(=O)N[C@@H](Cc2ccc(O)cc2)C(=O)N1)C(=O)N[C@@H](Cc1ccc(O)cc1)C(N)=O` [Ce-2d D6G]: the IC50 on C. elegans iPGM (setting [2]) was found to be 4.25e-06 M.

As to `CC(C)C[C@H](NC(=O)[C@H](Cc1ccc(O)cc1)NC(=O)[C@@H]1CSCC(=O)N[C@H](Cc2ccc(O)cc2)C(=O)N[C@@H](CC(=O)O)C(=O)N[C@@H](Cc2ccc(O)cc2)C(=O)N[C@@H](Cc2c[nH]cn2)C(=O)NCC(=O)N[C@@H](CC(=O)O)C(=O)N[C@@H](Cc2ccc(O)cc2)C(=O)N1)C(=O)N[C@@H](Cc1ccc(O)cc1)C(N)=O` [Ce-2d P4H], the IC50 at C. elegans iPGM (setting [2]) was 6.96e-08 M.

Regarding `CC(C)C[C@H](NC(=O)[C@H](Cc1ccccc1)NC(=O)[C@@H]1CSCC(=O)N[C@H](Cc2ccc(O)cc2)C(=O)N[C@@H](CC(=O)O)C(=O)N[C@@H](Cc2ccc(O)cc2)C(=O)N2CCC[C@H]2C(=O)NCC(=O)N[C@@H](CC(=O)O)C(=O)N[C@@H](Cc2ccc(O)cc2)C(=O)N1)C(=O)N[C@@H](Cc1ccc(O)cc1)C(N)=O` [Ce-2d Y9F], the results for the concentration for half-maximal inhibition (IC50) against B. malayi iPGM (setting [2]) and on C. elegans iPGM (setting [2]) were 1.52e-06 M and 1.25e-07 M, respectively.

For the origin of these results see paper PMC8113725, “Structure–activity relationship of ipglycermide binding to phosphoglycerate mutases” (The Journal of Biological Chemistry, 2021).
